Displacement data for 71 compounds are collected here from PubChem BioAssay AID1240 (Sanford-Burnham Center for Chemical Genomics, 2008).

In all, about 50,000 compounds went through this assay and about 800 (1.6%) showed an effect of 50% or more. This is one part of the list.

The test has as its target Bcl-2-like protein 10 (Homo sapiens) (UniProt Q9HD36). The experiment in a line: Phenotype converters, Bcl-B/TR3 peptide binding displacement, primary biochemical FP (AID 1240).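 Further: 0% = Bcl-B with tracer peptide and DMSO and 100% = tracer peptide lacking Bcl-B.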 Particulars: GST-Bcl-B / FITC-TR3 peptide fluorescence polarization; stronger effect = higher value; compound at 3.75 mg/L.
UniProt Q9HD36, sequence (Q9HD36 whole entry, looked up): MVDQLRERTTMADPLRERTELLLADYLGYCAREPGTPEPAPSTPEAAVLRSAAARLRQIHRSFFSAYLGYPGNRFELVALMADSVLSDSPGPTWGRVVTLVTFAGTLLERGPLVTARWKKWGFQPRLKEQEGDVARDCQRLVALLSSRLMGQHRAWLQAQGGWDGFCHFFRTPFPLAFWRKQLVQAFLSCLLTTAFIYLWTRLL
For `N/C(=N\[N+](=O)[O-])N/N=C\c1ccc(-c2ccc(Cl)c([N+](=O)[O-])c2)o1`, the displacement was determined as 7.6%.

With `Cc1ccc(Sc2ccc(C=C3C(=O)N(C)C(=O)N(C)C3=O)o2)cc1`, the displacement worked out at 13.1%.

Regarding `COc1ccc(O)c(CN2CCN(Cc3ccccc3Cl)CC2)c1`, the displacement was -3.6%.

Consider `c1cc2c(cc1CCNC1CCCCCC1)OCO2`, for which the displacement is -12.7%.

As for `COc1ccc(-n2c(/C=C/c3c[nH]c4ccccc34)nc3ccccc3c2=O)cc1`, the displacement was -10.4%.

Turning to `O=c1c2cc(I)ccc2nc(/C=C/c2c[nH]c3ccccc23)n1-c1ccccc1`, the displacement came to 2.4%.

Consider `Cc1cc(C)cc(N2C(=O)NC(=O)/C(=C\C=C\c3ccco3)C2=O)c1`, for which the displacement was -36.6%.

For the compound `O=C1NC(=S)NC(=O)C1=Cc1ccc(OCc2cccc(C(=O)O)c2)cc1`, the displacement came to 13.6%.

For `Cc1cc(C)c(C(=O)C(C)N)c(C)c1` (stereo unspecified), the displacement is 9.3%.

`O=C1C2(c3ccccc3)CN3CN(C2)CC1(c1ccccc1)C3`: the displacement is 4%.

Consider `O=C(COc1ccc2ccccc2c1)N1CCN(Cc2ccc(F)cc2)CC1`, for which the displacement is -4.3%.

With `O=c1c2ccccc2nc(/C=C/c2cccc([N+](=O)[O-])c2)n1-c1ccccc1O`, the displacement stood at 4.4%.

Consider `CCC1(C)CC(CCNCc2ccccc2)(c2ccc(C)cc2)CCO1` (stereo unspecified), for which the displacement is -1.5%.

Take `CCCCC1(c2ccccc2)C(=O)NC(=O)NC1=O`: the displacement amounted to 11.8%.

For the compound `CN1C(=O)NC(=O)/C(=C/c2ccc(-c3ccc([N+](=O)[O-])cc3)o2)C1=O`, the displacement worked out at 3.6%.

Regarding `CCOP(=O)(OCC)C(=C(Cl)Cl)C(C(=O)OC)C(=O)OC`, the displacement is -9.7%.

As for `CCCc1ccc(OCCNc2ccc([N+](=O)[O-])c3cccnc23)cc1`, the displacement came to 10%.

As to `CC(C)c1ccc(N2C(=O)CC(=O)NC2=O)cc1`, the displacement is -5.9%.

For the compound `Cc1cc(/C=C2\C(=O)NC(=O)N(c3ccc(Cl)cc3)C2=O)c(C)n1C`, the displacement was determined as 1.7%.

For `O=C1NC(=O)C(=Cc2ccccc2OCCOc2ccc([N+](=O)[O-])cc2)C(=O)N1`, the displacement came to 11.4%.

Regarding `CCc1ccccc1N1C(=O)NC(=O)/C(=C\c2cc(C)n(C)c2C)C1=O`, the displacement was found to be 87.7%.

For the compound `O=C1NC(=O)C(=Cc2ccc(-c3ccc(C(=O)O)cc3)o2)C(=O)N1`, the displacement stood at 12.4%.

Regarding `Cc1ccc(NC(=O)C2C(C)(C)C2(C)C)cc1C`, the displacement amounted to 6.9%.

As for `COc1ccc(C=C2C(=O)NC(=O)NC2=O)c(OC)c1`, the displacement turned out to be 11.9%.

Take `Cn1c(O)c(/C=C2\C=CC=N2)c(=O)[nH]c1=O`: the displacement was determined as 16.1%.

With `CN1C(=O)NC(=O)/C(=C/c2ccc(-c3ccc(C(=O)O)cc3)o2)C1=O`, the displacement was -83.9%.

Turning to `CN1CCN(c2ccc([N+](=O)[O-])c(N3CCCCC3)c2)CC1`, the displacement is -0.6%.

In the case of `O=c1c2ccccc2nc(-c2ccccc2F)n1-c1ccc(Cl)cc1`, the displacement is -4.2%.

As for `O=C1C2CCN(CC2)C1Cc1ccccc1O` (stereo unspecified), the displacement turned out to be 16.8%.

Regarding `Cc1cc(C=C2C(=O)NC(=S)NC2=O)c(C)n1-c1ccc(Cl)cc1`, the displacement turned out to be 36.9%.

Turning to `O=C(Cc1ccccc1)N1CCN(C2CCN(Cc3ccccc3)CC2)CC1`, the displacement was -4.1%.

Consider `COc1ccc(CCNCc2ccncc2)cc1`, for which the displacement is 7.1%.

In the case of `O=C(CSCc1nc2ccccc2c(=O)n1-c1ccccc1Cl)Nc1ccccc1`, the displacement is -9.9%.

As to `c1ccc(C2CC3CC4(CCCC4)N2O3)cc1` (stereo unspecified), the displacement was determined as 9.1%.

As for `COc1ccc(CN2CCN(C(C)C)CC2)c(OC)c1`, the displacement was -12.5%.

As for `COc1ccccc1-n1c(/C=C/c2ccccc2O)nc2ccccc2c1=O`, the displacement is -6%.

In the case of `O=C(N1CCN(C(c2ccccc2)c2ccccc2)CC1)C(O)(c1ccccc1)c1ccccc1`, the displacement is -5.2%.

For the compound `Cc1ccc(-c2nc3ccccc3c(=O)n2-c2cccc(C)n2)cc1`, the displacement is 10%.

Consider `CN1C(=O)NC(=O)/C(=C/c2ccc(I)o2)C1=O`, for which the displacement came out at 9.2%.

Regarding `Cc1ccc(S(=O)(=O)Oc2ccccc2C=C2C(=O)NC(=O)NC2=O)cc1`, the displacement is -8.7%.

As to `O=C1CC(=O)N(c2ccc(F)cc2)C(=S)N1`, the displacement was 3%.

Consider `Cc1cc(OCC(=O)OCc2ccccc2)c2c3c(c(=O)oc2c1)CCCC3`, for which the displacement stood at 3.5%.

Take `COc1ccccc1CNCCc1ccc(Cl)cc1`: the displacement turned out to be 15.5%.

As to `O=C(COc1ccc2ccccc2c1)N1CCN(C2CCCC2)CC1`, the displacement stood at 12.7%.

In the case of `CCCOC1NC(=N[N+](=O)[O-])NC1OCCC` (stereo unspecified), the displacement is -0.6%.

In the case of `CCCC(=O)c1ccc(N2CCN(C)CC2)c(F)c1`, the displacement is -7.2%.

Consider `O=[N+]([O-])c1ccc(N2CCCCCC2)c(F)c1Br`, for which the displacement stood at 2.4%.

Regarding `O=C1CC(=O)N(c2ccc(Cl)cc2)C(=O)N1`, the displacement was determined as 5.6%.

On to `O=C1c2ccccc2NC(c2ccccc2F)N1c1ccccc1` (stereo unspecified), for which the displacement was -0.3%.

For the compound `CCOc1ccc(N2C(=O)/C(=C/c3ccc(Br)o3)C(=O)NC2=S)cc1`, the displacement was -89.8%.

Regarding `CC1=NN(c2ccccc2)C(=O)/C1=C/c1c(O)[nH]c(=O)[nH]c1=O`, the displacement came out at 9.6%.

Turning to `O=[N+]([O-])c1ccc(NCCOc2cccc3ccccc23)c2ncccc12`, the displacement was 12.1%.

Turning to `Cn1cc(/C=C2\C(=O)NC(=O)N(Cc3ccccc3)C2=O)c2ccccc21`, the displacement was found to be 99.3%.

With `COc1cc([N+](=O)[O-])cc(/C=C2/C(=O)NC(=O)N(C)C2=O)c1O`, the displacement came to 2.3%.

Turning to `COc1ccccc1CN1CCN(Cc2cc(Br)ccc2O)CC1`, the displacement turned out to be 5.5%.

Turning to `C=C(C)Cn1c(=O)n(CC2CS2)c2ccccc21` (stereo unspecified), the displacement was 2.8%.

With `COc1cccc(CN2CCN(C(=O)COc3ccccc3)CC2)c1OC`, the displacement was -24.7%.

With `CSc1nc2ccccc2c(=O)n1-c1cccc(C)c1`, the displacement was -6.2%.

With `O=[N+]([O-])c1cc(F)c(N2CCOCC2)cc1Br`, the displacement was -0.6%.

Regarding `CCc1nc2ccccc2c(=O)n1-c1cccc(O)c1`, the displacement was found to be 11.7%.

As for `Cc1cc(OCC(=O)c2ccc(F)cc2)c2c3c(c(=O)oc2c1)CCCC3`, the displacement was -6%.

For the compound `CCCCn1c(=O)c(C(=O)Nc2ccccc2Br)c(O)c2ccccc21`, the displacement stood at 1.5%.

`COc1ccc(CN2CCN(C(C)C)CC2)c(OC)c1OC`: the displacement was -21.1%.

As for `Cc1ccc(S(=O)(=O)ON2CC2(C(F)(F)F)C(F)(F)F)cc1` (stereo unspecified), the displacement amounted to 8.7%.

Consider `O=C(COc1ccc(Cl)cc1)N1CCN(Cc2ccc([N+](=O)[O-])cc2)CC1`, for which the displacement was determined as 5.3%.

Turning to `S=C(Nc1cccc2ccccc12)NC1CN2CCC1CC2` (stereo unspecified), the displacement was -1.5%.

Regarding `COc1cc(C=C2C(=O)NC(=O)NC2=O)ccc1OCc1ccc(C(=O)O)cc1`, the displacement was determined as 0.6%.

Consider `Cc1ccccc1N1C(=O)CC(=O)N(c2ccccc2C)C1=S`, for which the displacement came out at 10%.

Turning to `O=c1c2ccccc2nc(-c2ccco2)n1-c1ccncc1`, the displacement is -8.5%.

Regarding `COC(=O)C1C2C(=O)N(c3ccc([N+](=O)[O-])cc3)C(=O)C12c1ccc(Cl)cc1` (stereo unspecified), the displacement was -4.6%.

In the case of `Cc1ccc(S(=O)(=O)Oc2ccccc2C=C2C(=O)N(C)C(=O)N(C)C2=O)cc1`, the displacement was 6.1%.
